Like-named read-outs stand apart in the source and are kept apart here.

The source of these data is US10370538B2 (priority 2015, dated 2019).

One experiment concerns M. smegmatis. As for the experimental part:
FIGS. 5A-5C illustrate freshly cultured E. coli (TOP10), S. pneumoniae, S. aureus, S. sanguinis, C. propinquum, C. striatum and M. smegmatis were incubated with PBS, 10 μM of TG, TG-DNB1 or TG-DNB2 at room temperature for 1 h. Cells were washed stringently with PBS for 3 times then fixed in 10% formalin solution for 30 min before vizualized with a confocal microscope (63×/oil, Ex/Em-FITC).
FIG. 5C is a graphical plot of the mean fluorescence intensity from flow cytometry for indicated strains and probes. The fold increasing (F/FPBS) was calculated by normalizing against the fluorescence intensity of PBS-treated cells. Experiments were performed twice with similar results.
FIG. 8A is a series of digital overlay images. Freshly cultured E. coli (TOP10), E. coli expressing TEM1-β-lactamase, S. pneumoniae, S. aureus, S. sanguinis, C. propinquum, C. striatum, and M. smegmatis were incubated with PBS, 10 μM CDG1, CDG-DNB1, or CDG-DNB2 at room temperature for 1 h. Cells were washed 3 times PBS and then fixed in 10% formalin solution for 30 min before analyzed with a confocal microscope under 63×/oil, Ex/Em-FITC. Images show an overlap of bright field and green fluorescence.
FIG. 8C is graph illustrating the mean values of fluorescence intensity collected by flow cytometry were plotted with GraphPad PRISM 5. The fluorescence intensity of PBS treated cells of each strain was arbitrarily set as 1 to show the fold increasing (F/FPBS).
The TG-DNB analogues were further tested with a commonly used laboratory mycobacterium strain Mycobacterium smegamatis (M. smegmatis). E. coli strain TOP10, Streptococcus strains S. pneumoniae and S. sanguinis, Staphylococcus aureus, Corynebacteria propinquum and C. striatum were used as controls. S. pneumoniae and S. aureus are frequently found in the human respiratory tract and the skin (van der Poll & Opal (2009) Lancet 374:1543-1556; Cole et al., (2001) Clin. Diagn. Lab. Immunol. 8:1064-1069). Corynebacteria commonly colonize the skin and mucous membranes of human (Watkins et al., (1993) Clin. Infect. Dis. 17:21-25). S. sanguinis is a normal inhabitant of the human mouth where it is often found in saliva (Paik et al., (2005) Infect. Immun. 73(9):6064-6074). Among these control strains, E. coli is gram negative, all the other strains are gram positive with a thick cell wall.

Another experiment has as its system BCG. The settings on record: flow cytometry, 10 μM, room temperature, 1 h. The protocol:
FIG. 9A is a series of images showing an overlap of bright field and green fluorescence. Freshly cultured BCG and Mycobacterium tuberculosis H37Rv were incubated with PBS, 10 μM CDG-1, or CDG-DNB2 at room temperature for 1 h. Cells were washed 3 times with PBS and then fixed in 10% formalin solution for 30 min before analyzed with a confocal microscope under 63×/oil, Ex/Em-FITC.
FIG. 9C illustrates a pair of graphs showing the mean values of fluorescence intensity collected by flow cytometry. The fluorescence intensity of PBS-treated cells of each strain was arbitrarily set as 1 to show the fold increasing (F/FPBS).
Without inclusion of the DprE-1-targeting group, CDG-1 can only be hydrolyzed by the β-lactamase BlaS expressed in M. smegmatis. […] Dual-targeting of BlaC and DprE1 in BCG and H37Rv: To estimate whether CDG-DNB2 can be utilized for the diagnosis of pathogenic mycobacteria, Bacillus Calmette-Guérin (BCG) and Mycobacterium tuberculosis (H37Rv), were tested. BCG is a vaccine prepared from the live bovine tuberculosis bacillus Mycobacterium bovis. It is widely used as an attenuated tuberculosis model due to its high similarity to human Mycobacterium tuberculosis. H37Rv is a typical strain of human Mycobacterium tuberculosis and expresses both β-lactamase BlaC and DprE1. […]
In general terms: In flow cytometry, cells or beads pass a laser one at a time.

Setting [1] is: 10 μM, room temperature, 1 h, washed with PBS.

Take `Cc1cc(OCCNC(=O)c2cc([N+](=O)[O-])cc([N+](=O)[O-])c2)ccc1-c1c2ccc(=O)cc-2oc2cc(OCc3ccc(OCC4=C(C(=O)O)N5C(=O)[C@@H](NC(=O)Cc6ccccc6)[C@H]5SC45CC5)cc3)ccc12` [CDG-DNB2]: the “fluorescence labeling of M. smegmatis versus control strains (confocal images)” value in the experiment on M. smegmatis (setting [1]) was “intense fluorescence signals compared to control bacterial strains”. Besides, the “fold increase of fluorescence intensity versus PBS treatment (F/FPBS)” value (“fold increase … (F/FPBS)” for short) in the experiment with M. smegmatis (flow cytometry, 10 μM, room temperature, 1 h, washed) came out at 80 fold. The “fold increase of fluorescence intensity over control levels, BCG” value in the experiment with BCG is “about 80 fold”.

Take `Cc1cc(OCCn2cc(CNC(=O)c3cc([N+](=O)[O-])cc([N+](=O)[O-])c3)nn2)ccc1-c1c2ccc(=O)cc-2oc2cc(Oc3ccc(OCC4=C(C(=O)O)N5C(=O)[C@@H](NC(=O)Cc6ccccc6)[C@H]5SC45CC5)cc3)ccc12` [CDG-DNB1]: in the experiment on M. smegmatis, the “fluorescence intensity relative to CDG-DNB2” value is given as “half of the intensity of CDG-DNB2” and the “fluorescence labeling of M. smegmatis versus control strains (confocal images)” value is “intense fluorescence signals compared to control bacterial strains”.

For `Cc1cc(OCCn2cc(CNC(=O)c3cc([N+](=O)[O-])cc([N+](=O)[O-])c3)nn2)ccc1-c1c2ccc(=O)cc-2oc2cc(O)ccc12` [TG-DNB1], in the experiment on M. smegmatis, the “fluorescence labeling of M. smegmatis versus control strains (confocal images)” value is recorded as “much higher fluorescence labeling of M. smegmatis than of control strains” and the “fold increase … (F/FPBS)” value turned out to be 50 fold.

Regarding `Cc1ccccc1-c1c2ccc(=O)cc-2oc2cc(O)ccc12` [TG, Tokyo Green, reference compound], the “fluorescence labeling of M. smegmatis versus control strains (confocal images)” value with M. smegmatis (setting [1]) is “Neither the solvent PBS (phosphate-buffered saline) nor the Tokyo Green (TG) fluorophore alone showed any fluorescence staining”.

For the molecule `Cc1cc(OCCNC(=O)c2cc([N+](=O)[O-])cc([N+](=O)[O-])c2)ccc1-c1c2ccc(=O)cc-2oc2cc(O)ccc12` [TG-DNB2], in the experiment on M. smegmatis, the “fluorescence labeling of M. smegmatis versus control strains (confocal images)” value is “much higher fluorescence labeling of M. smegmatis than of control strains” and the “fold increase … (F/FPBS)” value was 150 fold.
